According to the supplement of paper PMC8728848:
The other results are listed elsewhere or left out.

Key:
Test in all cases: glycan array binding signal (z-score within array); higher = stronger binding
Conditions in all cases: glycan notation: IUPAC condensed, linker removed
[1] = target: Neu5Ac(a2-6)Gal(b1-4)GlcNAc6S
How it was run: (§1)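 Arrays were curated from the Consortium for Functional Glycomics database, 3228 in total, and kept only where the protein sequence was available. Binding is expressed as a within-array Z-score. This score was averaged across arrays of the same protein sequence at different concentrations or buffers and across linkers, and negative values can be read as non-binding.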

Neu5Ac(a2-6)GalNAc = target: Neu5Ac(a2-6)GalNAc
How it was run: as §1

[2] = target: Neu5Ac(a2-6)GalNAc(b1-4)GlcNAc
How it was run: as §1

[3] = target: Neu5Ac(a2-6)GalNAc(b1-4)GlcNAc6S
How it was run: as §1

[4] = target: Neu5Ac(a2-6)GlcNAc(b1-4)GlcNAc
How it was run: as §1

[5] = target: Neu5Ac(a2-6)GlcNAc(b1-4)GlcNAc(b1-4)GlcNAc
How it was run: as §1

Neu5Ac(a2-8)Neu5Ac = target: Neu5Ac(a2-8)Neu5Ac
How it was run: as §1

[6] = target: Neu5Ac(a2-8)Neu5Ac(a2-3)Gal(b1-3)GalNAc(b1-4)[Neu5Ac(a2-3)]Gal(b1-4)Glc
How it was run: as §1

[7] = target: Neu5Ac(a2-8)Neu5Ac(a2-3)Gal(b1-3)GalNAc(b1-4)[Neu5Ac(a2-8)Neu5Ac(a2-3)]Gal(b1-4)Glc
How it was run: as §1

[8] = target: Neu5Ac(a2-8)Neu5Ac(a2-3)Gal(b1-4)Glc
How it was run: as §1

[9] = target: Neu5Ac(a2-8)Neu5Ac(a2-3)Gal(b1-4)GlcNAc
How it was run: as §1

[10] = target: Neu5Ac(a2-8)Neu5Ac(a2-3)[Gal(b1-3)GalNAc(b1-4)]Gal(b1-4)Glc
How it was run: as §1

[11] = target: Neu5Ac(a2-8)Neu5Ac(a2-3)[GalNAc(b1-4)]Gal(b1-4)Glc
How it was run: as §1

[12] = target: Neu5Ac(a2-8)Neu5Ac(a2-8)Neu5Ac
How it was run: as §1

[13] = target: Neu5Ac(a2-8)Neu5Ac(a2-8)Neu5Ac(a2-3)Gal(b1-4)Glc
How it was run: as §1

[14] = target: Neu5Ac(a2-8)Neu5Ac(a2-8)Neu5Ac(a2-3)[Gal(b1-3)GalNAc(b1-4)]Gal(b1-4)Glc
How it was run: as §1

[15] = target: Neu5Ac(a2-8)Neu5Ac(a2-8)Neu5Ac(a2-3)[GalNAc(b1-4)]Gal(b1-4)Glc
How it was run: as §1

[16] = target: Neu5Ac(a2-8)Neu5Ac(a2-8)Neu5Ac(a2-8)Neu5Ac(a2-3)[GalNAc(b1-4)]Gal(b1-4)Glc
How it was run: as §1

[17] = target: Neu5Ac(a2-8)Neu5Gc(a2-3)Gal(b1-4)GlcNAc
How it was run: as §1

Neu5Ac(b1-6)GalNAc = target: Neu5Ac(b1-6)GalNAc
How it was run: as §1

[18] = target: Neu5Ac(b2-6)Gal(b1-4)GlcNAc
How it was run: as §1

Neu5Ac(b2-6)GalNAc = target: Neu5Ac(b2-6)GalNAc
How it was run: as §1

[19] = target: Neu5Ac9Ac(a2-3)Gal(b1-3)GlcNAc
How it was run: as §1

[20] = target: Neu5Ac9Ac(a2-3)Gal(b1-4)GlcNAc
How it was run: as §1

[21] = target: Neu5Ac9Ac(a2-6)Gal(b1-4)GlcNAc
How it was run: as §1

[22] = target: Neu5Gc(a2-3)Gal(b1-3)GlcNAc
How it was run: as §1

[23] = target: Neu5Gc(a2-3)Gal(b1-3)[Fuc(a1-4)]GlcNAc
How it was run: as §1

Neu5Gc(a2-3)Gal(b1-4)Glc = target: Neu5Gc(a2-3)Gal(b1-4)Glc
How it was run: as §1

[24] = target: Neu5Gc(a2-3)Gal(b1-4)GlcNAc
How it was run: as §1

[25] = target: Neu5Gc(a2-3)Gal(b1-4)GlcNAc(b1-3)Gal(b1-4)GlcNAc(b1-2)Man(a1-3)[Neu5Gc(a2-3)Gal(b1-4)GlcNAc(b1-3)Gal(b1-4)GlcNAc(b1-2)Man(a1-6)]Man(b1-4)GlcNAc(b1-4)GlcNAc
How it was run: as §1

[26] = target: Neu5Gc(a2-3)Gal(b1-4)[Fuc(a1-3)]GlcNAc
How it was run: as §1

[27] = target: Neu5Gc(a2-3)Gal(b1-4)[Fuc(a1-4)]GlcNAc
How it was run: as §1

[28] = target: Neu5Gc(a2-6)Gal(b1-4)GlcNAc
How it was run: as §1

Neu5Gc(a2-6)GalNAc = target: Neu5Gc(a2-6)GalNAc
How it was run: as §1

[29] = target: Neu5Gc(a2-8)Neu5Ac(a2-3)Gal(b1-4)GlcNAc
How it was run: as §1

[30] = target: Neu5Gc(a2-8)Neu5Gc(a2-3)Gal(b1-4)GlcNAc
How it was run: as §1

[31] = target: Neu5Gc(a2-8)Neu5Gc(a2-3)Gal(b1-4)GlcNAc(b1-3)Gal(b1-4)GlcNAc
How it was run: as §1

[32] = target: Neu5Gc(a2-8)Neu5Gc(a2-6)Gal(b1-4)GlcNAc
How it was run: as §1

[33] = target: Neu5Gc(b2-6)Gal(b1-4)GlcNAc
How it was run: as §1

B1: UEA-I (Ulex europaeus), P22972 (protein)
chain: SDDLSFKFKNFSQNGKDLSFQGDASVIETGVLQLNKVGNNLPDETGGIARYIAPIHIWNCNTGEVASFITSFSFFMETSANPKAATDGLTFFLAPPDSPLRRAGGYFGLFEDTKDNDSSYQTVAVEFDTIGSPVNFDDPGFPHIGIDVNRVKSINAERWNKRYGLNNVANVEIIYEASSKTLTASLTYPSDQTSISVTSIVDLKEILPEWVSVGFSGGTYIGRQATHEVLNWYFTSNLINTNS
glycan array binding signal (z-score) [1]: -0.211 | glycan array binding signal (z-score) (Neu5Ac(a2-6)GalNAc): -0.221 | glycan array binding signal (z-score) [2]: -0.152 | glycan array binding signal (z-score) [3]: -0.273 | glycan array binding signal (z-score) [4]: -0.161 | glycan array binding signal (z-score) [5]: 0.158 | glycan array binding signal (z-score) (Neu5Ac(a2-8)Neu5Ac): -0.194 | glycan array binding signal (z-score) [6]: -0.298 | glycan array binding signal (z-score) [7]: -0.246 | glycan array binding signal (z-score) [8]: -0.244 | glycan array binding signal (z-score) [9]: -0.243 | glycan array binding signal (z-score) [10]: -0.233 | glycan array binding signal (z-score) [11]: -0.259 | glycan array binding signal (z-score) [12]: -0.232 | glycan array binding signal (z-score) [13]: -0.19 | glycan array binding signal (z-score) [14]: -0.016 | glycan array binding signal (z-score) [15]: -0.148 | glycan array binding signal (z-score) [16]: -0.206 | glycan array binding signal (z-score) [17]: -0.215 | glycan array binding signal (z-score) (Neu5Ac(b1-6)GalNAc): -0.242 | glycan array binding signal (z-score) [18]: -0.23 | glycan array binding signal (z-score) (Neu5Ac(b2-6)GalNAc): -0.195 | glycan array binding signal (z-score) [19]: -0.195 | glycan array binding signal (z-score) [20]: -0.155 | glycan array binding signal (z-score) [21]: -0.244 | glycan array binding signal (z-score) [22]: -0.202 | glycan array binding signal (z-score) [23]: -0.169 | glycan array binding signal (z-score) (Neu5Gc(a2-3)Gal(b1-4)Glc): -0.125 | glycan array binding signal (z-score) [24]: -0.186 | glycan array binding signal (z-score) [25]: -0.16 | glycan array binding signal (z-score) [26]: -0.176 | glycan array binding signal (z-score) [27]: -0.137 | glycan array binding signal (z-score) [28]: -0.164 | glycan array binding signal (z-score) (Neu5Gc(a2-6)GalNAc): -0.073 | glycan array binding signal (z-score) [29]: -0.249 | glycan array binding signal (z-score) [30]: -0.238 | glycan array binding signal (z-score) [31]: -0.117 | glycan array binding signal (z-score) [32]: -0.206 | glycan array binding signal (z-score) [33]: -0.1
